Data published in PubChem BioAssay (NCI).
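Each compound was tested at five concentrations against cells in 96-well plates for 48 hours. The concentration for 50% growth inhibition is given as GI50. TGI: total growth inhibition.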

tested on: NCI-H322M lung; assay: inhibition of tumour cell growth, NCI panel, 48 h

Compound	GI50	TGI
Cc1ccc2c(c1)O/C(=C\c1ccc([N+](=O)[O-])o1)C2=O	4.95 µM	54.5 µM
Nc1cc(-c2ccc(Cl)cc2)nn1-c1nc2ccccc2nc1-c1ccccc1		> 100 µM
Cc1[nH]nc2c1C(=O)C=C(N(CCO)c1ccccc1)C2=O		> 100 µM
O=[N+]([O-])/C=C\c1c[nH]c2ccc(OCc3ccccc3)cc12		29 µM
Cc1ccccc1NC(=O)CC(=O)N1N=C(N2c3ccccc3Sc3ccccc32)CC1c1ccccc1 (configuration not stated)		> 100 µM
Cc1cccc2c1O/C(=C\c1ccc([N+](=O)[O-])o1)C2=O	3.6 µM	16.4 µM
CC1(C)CC(=O)C(=[N+]=[N-])C(=O)C1		> 100 µM
O=S(=O)(O)/C(=C\c1ccccc1)c1ccccc1 (tested in a mixture with another compound)		> 100 µM
C[N+](C)(C)CC(=O)N/N=C(/CC1OC(=O)c2ccccc21)c1ccccc1O (configuration not stated)		> 100 µM
COc1cc2c(c(OC)c1OC)C(=O)[C@H](Br)[C@H]2NC(=O)NCCCl		> 100 µM
CCCCCC(O)(CCCCC)CCCCCCCCC1=C(O)c2[nH]c(=O)ccc2C(=O)C1=O		16.2 µM
O=C1/C(=C/c2ccccc2)CCc2ccccc21		29.3 µM
Oc1c(I)cc(-c2nc3ccccc3s2)cc1CN(Cc1ccccn1)Cc1ccccn1	0.395 µM	> 100 µM
C[C@H](CCC(=O)O)[C@H]1CC[C@H]2[C@@H]3[C@H](O)C[C@@H]4C[C@H](O)CC[C@]4(C)[C@H]3CC[C@]12C		> 100 µM
C/C(N=Nc1nc2ccccc2[nH]1)=C1/C=CC=CN1O		> 100 µM
COc1ccc([C@]23CCN(S(=O)(=O)c4ccc(C)cc4)[C@H]2[C@H](CO)C2(CC3)OCC(C)(C)CO2)cc1OC		> 100 µM
N#Cc1c(N)nc2c(c1-c1ccc(Br)cc1)CSc1ccccc1-2		> 100 µM
N[C@@H]1CCCC[C@@H]1N.O=C([O-])CN(CP(=O)([O-])[O-])CP(=O)([O-])[O-].[Pt+2]	> 100 µM	> 100 µM
c1cc(-c2cn[nH]c2)cc(-c2cn[nH]c2)c1		> 100 µM
CCOC(=O)CCC(NC(=O)c1ccc(Nc2cnc3ccc(C(F)(F)F)cc3n2)cc1)C(=O)OCC (configuration not stated)		> 85.6 µM
CCc1cccc(C(C)CC)c1NC(=O)C(=O)C(CC(=O)Nc1ccc(Cl)c(Cl)c1)C(=O)OC (configuration not stated)		> 100 µM
Cc1cc(N(CCC#N)CCC#N)ccc1N=Nc1cccc(Cl)c1		> 100 µM
O[C@H]1[C@H]2[C@H](O)C[C@H](CCOCc3ccccc3)CN2C[C@H]1O		> 100 µM
O=c1oc2ccccc2c(O)c1C(c1ccc2c(c1)Cc1ccccc1-2)c1c(O)c2ccccc2oc1=O		> 100 µM
COc1ccc2c(c1)cn1c3ccc(O)cc3[nH]c(=O)c21	0.539 µM	9.84 µM
C#C[C@]1(O)CC[C@H]2[C@@H]3CCC4=C/C(=N\OCCN(CC)CC)CC[C@]4(C)[C@H]3CC[C@@]21C		23.6 µM

Compound	GI50	TGI
O=C(NNS(=O)(=O)c1ccc(F)cc1)c1cccnc1Nc1ccc(Cl)cc1Cl	31.1 µM	> 100 µM
Cc1cc(C)n(C(=O)c2nn(-c3ccc(Cl)cc3)cc2O)n1	6.17 µM	> 100 µM
CCSC1=N/C(=C/c2ccccc2O)C(=O)N1		> 100 µM
COC(=O)C[C@H](COCc1ccccc1)NC(=O)C[C@H](COCc1ccccc1)NC(=O)OC(C)(C)C		68 µM
O=C(O)C(O)C(O)C(O)C(=O)CO (configuration not stated)		> 100 µM
COC(=O)c1ccccc1C1CN=NC12Cc1cc(C)c(C)cc1C2=O (configuration not stated)		> 100 µM
O=C(CNc1ncco1)Nc1ccc(S(=O)(=O)c2ccc(NC(=O)CNc3ncco3)cc2)cc1	13.4 µM	27.6 µM
O=c1c2ccccc2[nH]c(=S)n1-c1ccc(N=Nc2cccc3cc(O)ccc23)cc1		> 100 µM
Nc1ccc(-c2nc3cc(F)ccc3s2)cc1CO		> 66.5 µM
CC1CCP(=O)(c2ccccc2)CC1 (configuration not stated)		> 100 µM
CCN(CC)c1ccc2cc(C(=O)Nc3nc(C45CC6CC(CC(C6)C4)C5)cs3)c(=O)oc2c1		> 100 µM
Cc1n[nH]c(=O)n1/N=C/c1ccncc1		> 100 µM
CC(=O)/C=C/C1=C(c2cccs2)c2ccccc2CC1	36.6 µM	> 100 µM
C#C[C@H](CCCC)OC(=O)N[C@H](C)c1ccccc1		> 100 µM
CCN(CC)Cc1cc(Nc2c3ccccc3nc3c4ccccc4n(C)c23)ccc1O		24.5 µM
O=C1CC2(CCC(O)(c3cccs3)C(C(=O)c3cccs3)C2)C(=O)c2ccccc2N1 (configuration not stated)		> 100 µM
CCNc1nc2c(ncn2C2CC(O)C(COP(=O)(O)O)O2)c(=O)[nH]1 (configuration not stated)		> 100 µM
O=C1/C(=C\c2ccc(F)cc2)CCOc2c1ccc1ccccc21		60 µM
CCOC(=O)c1sc2nc(-c3ccccc3)nn2c1CBr		7.36 µM
COc1ccc(N2C(=O)[C@@H]3[C@H](C2=O)c2[nH]c4ccccc4c2C2CCC(C(C)(C)C)C[C@@H]23)cc1 (some centres not stated)		> 100 µM
O=C(NCCNCCNC(=O)C(F)(F)F)C(F)(F)F		> 100 µM
CCCCCOC(=O)c1cc2cc(CCl)ccc2oc1=O		33.7 µM
COc1ccc(C(=O)COc2cccc(/C=C3\CSc4ccc(Cl)cc4C3=O)c2)cc1	83.1 µM	> 100 µM
O=C(Nc1ccccc1O)c1ccc(CNC(=O)c2sccc2Nc2ccnc(C(F)(F)F)c2)cc1	9.49 µM	69.5 µM
CC1(C)CCC[C@@]2(C)C1C(=O)[C@@H]1O[C@]1(C)[C@@H]2CO (some centres not stated)		> 100 µM
